The source gives no read counts; variants with many changes may rest on few reads.
B1: LINE1-full (parent)
chain: UACGUAGGUGGUUUUCCCCUGAUAGUGCUAAGGGGGCCUGGAAGUUUGGACUGGGCAGAGCUCAACACAGCGUGGCAAAGUGGCUGUGGCUAGACUGCCUCUCUGGAUUCCUCGUCACUCAGCAGGGCAUCUCUGAGAGAAAUGCC

Variants of: B1
Assay: self-cleavage, relative activity (ratio to wild type); higher = more cleavage; in vitro, sequencing; the parent is a self-cleaving ribozyme

Variant	self-cleavage
A77G A117G A140G U143A	2.76
A67U U73G U132C	0.07
A69G U81C A94U	0.34
A69U U85C U96C U134A	0.03
A69G U81A A142G	0.22
A67G A69G U104A A124G	0
A69G A79G G80A U108C U115C	0
A69G U73A A136G	0.32
U73C U87C A136G	0.22
A69G U130A U143C	0.96
U73C G93A U100C	0
C66U A78G U87C U100A	0.01
C71A U91C U100G U108A	0.02
A67G A94G U104A A121C	0
A69G A79G A94G	0
C76U U119A A142G	1.49
U73A A79G C118U U130C	1.39
A67G U102C A136G	0.64
A67G A117G A142G	0
G72A U81C U104A A136G A140G	0.31
A67U U104A U119A U143C	0.07
G75A U87A A94G A117G	0.04
C71U U96G C99A U115C	0.03
C76U C111U A140G	2.68

Variant	self-cleavage
C68U U108A A138G	0.02
G72A U100C U108C	2.27
A77G U85A A142G	0.11
A77G U87A A117G	0.06
A69G U73A U102A A142C	0.17
A69C U104A U132G	0.06
G75A G126A A136G A142G	1.33
A67G U85C A117G	0
A69G A129U U132A A142G	0
A69G U96C G127A	0
U73A U102C A142G	0
U73C U85C G86C U96A	0.04
G75C G93A U119C	0.01
A69U A121G A141G	0
C66U U85C U104A	0.03
A69U U91C G106A C116U A140C	0
A67G A69U U100A	0.26
A69U U85C A138G	0.09
A77G A78G G86A U96G	0.09
C68U A69G A138G	0.19
A67G C76U U100C	0.92
A77G U100C C113U	2.52
U73C C84U A140G	0.56
A67U U73C U132C	0.38

Variant	self-cleavage
A77U A107U A140G	1.78
U73C A78G A138G	1.97
U73A G97A A140U	0.21
A67U U81C U104A	0.08
U73A C116A A117G A121U	0.37
A69U A78G A107G	0.03
A67U G82A G126U	0.21
C66U A69G A107U	0
U73G G82A A92G	0.06
G75A U85C A121G U130A A138G	0.53
A67U C98U U143C	0.01
A65U U132C G139A	0.13
A67C U81A U96A A117G	0
U73A A79G U87A U130C	0.1
A77G A78G A142G	2.3
G75A U104C U108C	1.52
G72A A77G U109C	1.79
C76U U109C A129U	2.01
C76U U115A U134C	0.98
A69G G74A U96C	0.05
A77G C84U A142G	0.16
C68G A94C U143C	0
C66U A79G A129G	0
A67U A94C U108C	0

Variant	self-cleavage
A77G A94G U112C G127A	0.23
G74A U85C U132C A141G	0.11
C76U U115C A124G	1.94
C76G A136G A141G	2.14
A69G G72A A78G A142G	0.26
U73C G89A U100C U134C	0.06
A77G U109G C146U	1.2
A69G C76G A121G A141U	0.98
C71U U81A A142G	0.8
C71A U102A U143A	0.51
A67G U132C A140G A142G	0
A67G A69G A121U	0.2
A69G G126A U130A U134C	0.45
A67G U112C U115A A141G	0.41
A67G A78G A141G	0.38
C68U A79G A136U	0.12
C68U C99U A136G	0.04
A67G U81A U96A U112C	0.03
U73C A94U U108A	0.4
A69G U96A U119C A136G	0.09
A69U A78G A141G	0.02
U73A U109C C118U	1.11
U73A A107G A136U	2.3
U73C C120U U134C U143C	1.91

Variant	self-cleavage
A77G A79G U119A	0.56
A69C U85C U102C	0.48
A67G A78G U87A	0
U73A U130C U132C	1.63
C71U A138G A142G	0.96
U73A A107G U130A A141U	2.11
A67C U73C U96A	0.03
A77G A92U U100A U104C	0.33
G74A C103A A140U A141G	1.41
U73G U109C A141G	0.9
U73A U81C A129G	1.51
A69G C111A U119A U130C	0.18
A67G U119A A136U A140G A141G	0
U73C A140G U143A	1.76
U73C G86A U108C	0.1
A77G C90U A129C	0.09
A67G A92U G114A	0.17
A67G U109A A140G	0.29
U73A U100C U115A	2.11
U73C U112C U130A A138U	1.75
A67G U100C C145G	0.97
A69U U119C A140G	0.11
A67G U81C U100C	0
A69G G122A U130C	0.82

Variant	self-cleavage
A77G A117G A142G	0
C66U U87C U102C	0
A77G A121G A141C	1.08
A67G U73A A124U U130C	0.48
U73C G75A A107U G137U	1.12
A69G U73C C95U	0.25
A69U U73A A94G U115C C120A U132C	0
C68A A69G A79G	0.07
U73A A77C U109C	0.92
U73A U96A U119C	0.04
A77G U104A A129U	2.22
U73A A77G C90A U130C	0.04
C71U A121G U143C	1.91
U73A A78G U81C A138G	0.52
G70A G83U A124C U132C A136G U143A	0.12
A67G U108C U109C	0.61
A69U U96C U104A A121G	0
C71U U85A A142G	0.06
A69G U96G U109C	0
A77G A142G U143C	0.84
A69G U102C A129G	2.3
U73A A77U A129G U134C	0.43
C71A A77G A117C	1.9
A69C C120A U134C A142G	0.08

Variant	self-cleavage
A69U G72A A78G	0.06
A77G U115C U132C	2.68
A67G A77G C128U A136G A138U	0.61
G75U U104A U119C	1
G74A U102C G127A U134A A141G	0.52
A67G A69G A140G	0
A77G U91C U100C	1.02
A67G A78G U100C	0
U73C G88U G89A U112A A117G A121G	0.03
U73A U102C G105A A121U A124U	2.06
A77G U85G U100C U143A	1.08
C66U A69G U108C U132A U143A	0.05
G72U A79U U130C	2.08
A67G G72A U134C	0.6
G70A G83C A138G	0.54
A77U A94G U112C	0.09
A77G C99U A142G	0.92
G75A A107U A124U C128U	0.92
U73A U102C U119A U134C	2.12
U73A C99U A142G	0.55
A67U U73C A129G	0.48
A67G A121U U130A	0.5
A77G U115C A138G	2.63

Reference: the RNAGym collection of RNA variant scans (doi:10.7554/elife.90254)
